Data reported in the supplement of paper PMC10185492.
The other results are listed elsewhere or left out. Values come from read counts of a selection and are noisy.

Each substance was assayed on SARS-CoV-2 3CLpro (nsp5) (assay: substrate phage enrichment score (protease-eluted vs HEPES control, +1 offset) (ratio); higher = better cleaved substrate). Details: selection round: 4; protease elution time: 15 min.
Procedure: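 Random heptapeptide substrate phage display (M13 pIII fusion, heptapeptide between an N-terminal biotinylated AviTag GLNDIFEAQKIEWHE and pIII; phages immobilised on streptavidin) eluted by cleavage with 50 nM protease in 20 mM HEPES at 37 °C. Selected phages were NGS sequenced, and the enrichment score is (reads in protease sample + 1)/(reads in HEPES blank-selection control + 1).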

Substance	substrate phage enrichment score
SELQSGA	5.07
ASSRPAN	> 75
TRYNPAL	11.8
ESTLQGN	> 37
VPKTKLQ	> 132
AEDNPYR	1.36
ESSRVVS	1.51
GAAHHHH	0.986
RPPSELG	0.737
TGNVSTE	> 44
YSQGWLQ	18.8
GDNEHWR	> 24
LCRPKTT	> 23
CLNQGGS	> 36
WEQSSEK	> 21
RAPVLQR	5.12
RKPTLLH	> 39
RCVPKLQ	17.5
PNMPASR	4.41
ETFRSQP	> 22
RERKEPT	0.5
NHARMTD	3.67
KGEACSD	> 22
THGRPMR	1.69
SCDKLGP	4.5

Substance	substrate phage enrichment score
GCSAAAH	0.941
FPGGSAA	1.09
LPCPYTR	> 27
GSLERRG	10
HRSQQSS	0.36
RLESVSP	> 37
SPECLRD	> 121
SSAAAHH	0.514
LTLERTG	1.69
NAAAQHH	1.3
KWAPHRE	> 23
KCRVSSR	20
TPYRLKH	> 22
LGKLSQK	1.79
ARSTLQS	> 502
EIQSGPG	3.46
RHECRAT	> 21
DLYFQGG	1.35
APSILKQ	> 51
TDEPPRS	0.231
VNAAAHH	3.86
GHDEILQ	1.15
EKGSSEA	3.17
RDIHPVQ	1.78
TCSSPGP	1.69

Substance	substrate phage enrichment score
VSHAPSS	9.33
VMGVIRD	4.12
GPQKHSV	6.67
HVRATLQ	> 196
RAKNTES	18.3
RSQSMPG	5.43
WTESQRT	> 39
AALNTGR	> 27
SAAAHKH	1.02
PRLEKLP	> 22
AVISWPG	1.48
GQHPSFG	> 25
SKDVCVQ	1.36
AGLGSKC	> 26
MQGTLRA	5.25
FYCPLLW	2.11
RRDEQLP	51
AYFQGGS	5.08
TKSPFQG	2.75
RRNVGND	0.093
LNSEFHR	2.42
PLSAQLQ	> 186
GSVPSLQ	15.5
AMTACGK	> 374
EKPQIHR	> 38

Substance	substrate phage enrichment score
LIKPTMQ	> 34
MRHIERA	5.2
SCPLGSR	1.93
VQRLRVG	2.67
EQNFQGG	> 41
HEPRSPC	> 35
RVQLQAD	> 34
LSLSLPS	0.353
NPHIEPR	5.83
KRSTTLI	> 27
SGRTSSS	0.467
AESRMDL	2.14
NGHVLRS	0.647
TAVNLGR	0.0625
APTSSHR	> 35
SAAHHHH	0.91
KSTQEAH	0.217
EGSRAPC	1.31
WQKNQIQ	> 21
NNQTPDC	> 22
RVPLSRN	2.89
RAAAQHH	1.18
VQSGRYP	2.4
APERAHR	0.143
TVNDFMQ	> 29

Substance	substrate phage enrichment score
PRGVNLQ	> 32
SAAAQQK	1.43
RSERLRE	3.6
KDWLLKG	1.43
RLRLFCR	14
EENGTLQ	8
SCWKEFQ	1.67
KWSGPRL	> 65
GCPTSKA	> 27
GKSQNPR	7.88
GCSCTDR	> 37
ERHTPAL	1.57
SHVNYTD	0.636
PLAAQPA	3.6
SRCPRNE	> 48
RDTARCR	3.4
RALTPNV	8.5
IPSCRCK	0.261
SDAVMET	0.714
CERAVMQ	0.91
KNMTPYC	> 26
PGANVLQ	11
SAAAHNN	1.18
LTGESWH	5
SAAPHHQ	1.35

Substance	substrate phage enrichment score
PTSDCLT	> 23
SQNAKLQ	> 38
LQNLNPT	0.469
NTEQYFQ	> 23
HGQLNVN	> 53
SLHTRHC	0.211
AQNRDGI	> 71
HLNEVFR	> 21
PSTRLQS	> 394
CPHESRS	> 81
KHGQPCR	> 37
STSVTLQ	> 35
SQCMWST	5.25
ASSSSAS	2.25
LPSHDQR	> 21
CPNRLHT	2.91
ARPRPAL	1.73
IRSGPSQ	0.375
RPINGKA	4.67
GAEVRHH	1
WLLESGG	4.2
MNHDENS	> 28
ARRRCEM	> 32
TGAKSRT	1.83
FSFEPGP	5

Substance	substrate phage enrichment score
VQLQSGQ	> 29
CAWPIHR	6.93
VKSAYDT	> 21
CTTVPTN	8
TGRIGNC	0.254
SCTFVNE	27
TQGKSGF	1.2
DNQRLRP	0.238
KTAICRQ	> 27
DFTPTAR	13.5
QYFQGGS	1.18
RKNCGHL	1.12
LETKLQS	> 67
PDCAGMS	1.85
SRSKDVL	3.33
NGRTNYC	3.25
SNTDAPE	2.62
VMMMCGR	2.13
FTAAHHH	1.61
GRAAAHH	1.32
EGEWNPG	1.75
ALCPDVN	1.62
AQTRLMA	> 30
SSKILMP	1.91
PWEGRQC	4.2

Substance	substrate phage enrichment score
GAGRLRQ	2.43
NTTAHHH	0.519
SRCSCAH	> 68
KQYFQGG	0.964
QRTPKCG	2.42
SSTAAHH	1.36
EEAAHHH	1
PHHHHGA	0.579
KAPVLHS	> 30
SILQGSA	> 68
DHHHGAA	6.1
TTSKSLY	7.33
WQPSKLQ	116
DRRDAIT	15.7
SPACVTT	> 44
DLRADNL	0.471
LRAGICR	> 48
SWRVSLQ	> 28
TEKRYPR	1.08
GDTAHWR	2.75
QRFNVTD	> 48
RHQVNGN	> 23
ALSGPPT	0.571
HSGAIWK	1
YQKATAN	> 22

Substance	substrate phage enrichment score
STEAMTE	1.62
GPTAAHH	1.78
HVECPHV	2.18
LSPTVLH	> 77
WRDTNLQ	2.52
YGRVRLQ	> 28
CLLDQKD	4.8
QNSIKES	> 26
QTGPVNR	> 26
RTQPHAT	0.714
AIQSPAL	4.17
SADAHHH	1.15
SRESQCN	10.1
TAKTGSP	> 39
HCLNSAR	0.111
AEAHAPP	3.29
KTTLKPG	> 99
LQPSNSR	> 29
LNSQLQG	6.67
LYNPRGS	0.591
TTWCKCT	> 53
QSKRTLT	> 23
NSRSETQ	5.75
ICASENS	> 24
HLGNSAR	3.67

Substance	substrate phage enrichment score
RNMTEWS	2.06
HMSCSWF	1.78
RFCESMS	0.4
MRACNLQ	> 32
TYPQAQH	1.04
SFQGGSA	1.74
RPAAHHH	1.11
LQANGQQ	> 50
SPNNSLC	5.89
QSSPVMQ	> 28
PCMFESG	2.3
RAAAPHH	0.833
WPQGESQ	> 24
RPHLQGS	13.5
LSPVRLQ	> 25
GHTIREP	0.733
NSLLQGT	> 23
LCGILSW	15
DLWRGCN	> 30
SKGGCTL	0.551
CQKCITR	0.158
GHGQTSA	5.43
SVWSAPE	> 78
PNTDVNN	2.09
TQMEQCC	0.182

Substance	substrate phage enrichment score
SAPLGNR	> 41
ASHKGMN	4.6
LHDPTAV	3.4
TNFQGGS	4.12
CVMKTGP	2.62
IFRVVVR	1.26
ESHAERS	0.365
QAGPVNR	> 28
TSAAHHH	1.08
AGAHHHH	0.533
ALAVGAR	1.56
QIQGWDK	2.57
KRQYMLS	> 29
VASLPGQ	> 54
VQKQTVP	5.75
IHCKGNT	> 21
CATAHHH	5.71
GSPMQSE	1.31
NRSRSCP	0.136
PRTKGDC	6.33
SCAPTLR	> 36
CYVLQLE	0.76
CQSLSVG	1.8
CRQELKE	1.54
TEAAHHH	0.446

Substance	substrate phage enrichment score
LFVCRVG	> 35
RAVGNNT	> 22
NYPRRDP	> 24
KDTLCKM	2.77
GRECTLQ	> 109
VWMGPEE	0.0952
IWSEQFT	1.23
TCRRHEE	0.467
SQETTCQ	0.857
ELRQMPR	> 26
FGFSRLQ	> 32
TDTAPAD	0.087
TYDSPRQ	0.833
SLCPMIG	10.5
QFRGKNT	0.176
KDASAKQ	> 27
SAPPRTM	2.56
HSNLYMS	> 34
NYREAAC	> 50
NRPRCTL	2.41
PCETNSR	> 57
TVTPVEQ	0.278
VVSIPGK	5.14
ALKPLTK	11.9
GRTSSSP	0.628

Substance	substrate phage enrichment score
GYQLIPR	0.6
LYFQGGR	0.818
ANPRTYQ	2.12
RNRRERC	0.765
DNVLILE	7.5
LNFQGGS	1.63
SHCDRSE	> 23
SNLNMSN	0.529
TKLQKNP	> 32
LGEPPCP	0.412
SSRNPKG	1.8
MQAAHHH	1.78
DCALYPG	0.923
VCDGRSL	0.571
SRFLRRV	1.44
SSSDCPR	0.172
MRIDSVE	10.5
HRRCSGS	11.2
SVPVPSA	0.562
AHFRCRN	0.52
SRLVRCG	> 42
HKTHSGR	> 27
AFQGGSA	1
VDRYHRG	8.33
RRRPSLQ	57.7

Substance	substrate phage enrichment score
QVRTSLQ	> 28
CACREGD	4.75
LPPTDSW	1
NRLTGCE	1.9
VKKDVSD	> 52
EPGGSSL	> 38
SELKGTD	> 64
LLSPNRC	76.5
RAPHEKF	0.947
WLGNLQN	18.3
REVSEFY	1.08
MAAHHHH	0.364
LKPTSHS	> 28
ADEGRQI	> 24
RAAENYG	3.83
HATQEPY	0.0576
MQECHCP	3.05
TRTSMKQ	2.8
TTEDKVG	> 22
QDGSAAA	0.1
AYAGETR	12
SQGKLIR	6.33
PIYNEGR	0.72
DLSGRSR	14
GICPDWI	0.786

Substance	substrate phage enrichment score
NPHDPTD	11.7
SLQKTSQ	> 27
SAAAHQK	2.07
TGVSRNL	0.767
SYNGTNL	3
RNGNRAT	> 33
QGPILTR	0.0833
RQNSCRA	> 24
NAVPFLR	> 69
LGSPKLQ	> 22
SQNNKPM	1.39
QGRDLCP	0.956
NSGELDT	31.5
LNVEDTA	0.882
AAAHHHQ	1.09
EGVGVAR	> 27
VGRTSLQ	> 168
